This is one part of the list.
The sequences below were run against T1, MBP-FoxP1dN (Mus musculus, UniProt P58462 326-579) (assay: PD-seq (MBP pull-down with sequencing); 20 mM Tris-HCl pH 7.5, 100 mM NaCl, 1.5 mM MgCl2, 0.4 uM protein, 0.1 uM dsDNA library, 30 min, room temperature, amylose pull-down; high values mean tight binding). Settings: protein: recombinant; tags: His6-MBP; chain copies: 2; dsDNA, one strand shown.
T1 sequence: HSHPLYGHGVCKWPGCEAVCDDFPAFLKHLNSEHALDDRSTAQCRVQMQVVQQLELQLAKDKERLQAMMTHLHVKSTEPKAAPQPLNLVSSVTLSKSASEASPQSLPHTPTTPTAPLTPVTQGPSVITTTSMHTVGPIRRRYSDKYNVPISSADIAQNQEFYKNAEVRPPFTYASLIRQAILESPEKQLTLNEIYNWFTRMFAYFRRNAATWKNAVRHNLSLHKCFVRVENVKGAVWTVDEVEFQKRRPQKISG
Method in brief: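 Binding is given as reads-per-million enrichment, pull-down over input, with replicates pooled. The bait was an N-terminus-lacking mouse FoxP3 or FoxP1 fragment with a His6-MBP tag, expressed in E. coli and used at 0.4 µM with 0.1 µM Klenow-filled degenerate double-stranded DNA library for 30 min at room temperature in Tris pH 7.5 buffer with NaCl and MgCl2. Amylose resin pull-down with three washes was followed by proteinase K release, PCR barcoding and Illumina sequencing.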

Row | Sequence | binding signal
1 | GATGATTGTTCTCCCAGCTGATGAATTACGTCTGTCGAGTAAACAAATTTTCCTAATCTTTCTGTTCAAGCGCCATCTAC | 0.971 RPM ratio (pull-down/input)
2 | GATGATTGTTCTCCCAGCTGATGAATTGCGACCATCGAGTAAACAAATTTTCCTAATCTTTCTGTTCAAGCGCCATCTAC | 1.09 RPM ratio (pull-down/input)
3 | GATGATTGTTCTCCCAGCTGATGAATTGTGAAGCTCGAGTAAACAAATTTTCCTAATCTTTCTGTTCAAGCGCCATCTAC | 0.905 RPM ratio (pull-down/input)
4 | GATGATTGTTCTCCCAGCTGATGAATTGCGAGCCTCGAGTAAACAAATTTTCCTAATCTTTCTGTTCAAGCGCCATCTAC | 0.956 RPM ratio (pull-down/input)
5 | GATGATTGTTCTCCCAGCTGATGAATTTTTTTAATCGAGTAAACAAATTTTCCTAATCTTTCTGTTCAAGCGCCATCTAC | 1.01 RPM ratio (pull-down/input)
6 | GATGATTGTTCTCCCAGCTGATGAATTGCATTCGTCGAGTAAACAAATTTTCCTAATCTTTCTGTTCAAGCGCCATCTAC | 1.33 RPM ratio (pull-down/input)
7 | GATGATTGTTCTCCCAGCTGATGAATTGCACAGGTCGAGTAAACAAATTTTCCTAATCTTTCTGTTCAAGCGCCATCTAC | 0.955 RPM ratio (pull-down/input)
8 | GATGATTGTTCTCCCAGCTGATGAATTTGCTACGTCGAGTAAACAAATTTTCCTAATCTTTCTGTTCAAGCGCCATCTAC | 1.01 RPM ratio (pull-down/input)
9 | GATGATTGTTCTCCCAGCTGATGAATTGCCGGCTTCGAGTAAACAAATTTTCCTAATCTTTCTGTTCAAGCGCCATCTAC | 0.93 RPM ratio (pull-down/input)
10 | GATGATTGTTCTCCCAGCTGATGAATTTAACAGCTCGAGTAAACAAATTTTCCTAATCTTTCTGTTCAAGCGCCATCTAC | 0.889 RPM ratio (pull-down/input)
11 | GATGATTGTTCTCCCAGCTGATGAATTTCATATGTCGAGTAAACAAATTTTCCTAATCTTTCTGTTCAAGCGCCATCTAC | 0.873 RPM ratio (pull-down/input)
12 | GATGATTGTTCTCCCAGCTGATGAATTTTCGAGATCGAGTAAACAAATTTTCCTAATCTTTCTGTTCAAGCGCCATCTAC | 0.88 RPM ratio (pull-down/input)
13 | GATGATTGTTCTCCCAGCTGATGAATTCCGTGCATCGAGTAAACAAATTTTCCTAATCTTTCTGTTCAAGCGCCATCTAC | 1.13 RPM ratio (pull-down/input)
14 | GATGATTGTTCTCCCAGCTGATGAATTATCGGGGTCGAGTAAACAAATTTTCCTAATCTTTCTGTTCAAGCGCCATCTAC | 0.806 RPM ratio (pull-down/input)
15 | GATGATTGTTCTCCCAGCTGATGAATTACAGGGCTCGAGTAAACAAATTTTCCTAATCTTTCTGTTCAAGCGCCATCTAC | 0.853 RPM ratio (pull-down/input)
16 | GATGATTGTTCTCCCAGCTGATGAATTGGGGCATTCGAGTAAACAAATTTTCCTAATCTTTCTGTTCAAGCGCCATCTAC | 0.986 RPM ratio (pull-down/input)
17 | GATGATTGTTCTCCCAGCTGATGAATTGGTTGCATCGAGTAAACAAATTTTCCTAATCTTTCTGTTCAAGCGCCATCTAC | 1.44 RPM ratio (pull-down/input)
18 | GATGATTGTTCTCCCAGCTGATGAATTCACGGGTTCGAGTAAACAAATTTTCCTAATCTTTCTGTTCAAGCGCCATCTAC | 0.766 RPM ratio (pull-down/input)

— paper PMC12820563, “FoxP3 forms a head-to-head dimer in vivo and stabilizes its multimerization on adjacent microsatellites”
